Hit rate of the full screen: of about 4,800 compounds, about 420 (8.8%) showed an effect of 50% or more. The list shows a part of the results.
Each compound was assayed on Plasmodium falciparum (assay: Confirmatory screen in NF54 nanoGlo assay, in single point, at 2uM, 72h). Details: timepoint 72 hour.
Type: functional, Erythrocyte

| SMILES | % Inhibition |
| --- | --- |
| CN1CCN(c2ccc(C(F)(F)F)cc2NCc2cnc[nH]2)CC1 | 62% |
| CN(C)CC12CNCC1CN(c1ccnc3cc(Cl)ccc13)C2 (stereo unspecified) | 98% |
| CN1C2CCC1CC(OC(=O)C1CCC(C(=O)OC3CC4CCC(C3)N4C)(c3ccccc3)c3ccccc31)C2 (stereo unspecified) | 49% |
| CCCOc1cncc(-c2ccc3c(c2)CNCC3)c1 | 3% |
| Oc1ccc(C2=CCN(Cc3cccc4[nH]ccc34)CC2)cc1 | 49% |
| COc1ccc(CCNCc2ccc3[nH]cnc3c2)c(Cl)c1 | 29% |
| CC(C)(C)c1ccc(CNC[C@H](O)c2ccc(F)cc2F)cc1 | 95% |
| Cc1ccc(CNc2ncnc(N)c2Cl)c(N2CCCC2)n1 | 50% |
| CCN(C(C)=O)c1nc(CN2CC=C(c3c[nH]c4cc(F)ccc34)CC2)cs1 | 7% |
| O[C@@H](CNCc1ccc2c(c1)CCO2)c1ccc(F)c(F)c1 | 61% |
| Fc1ccc(N2CC[C@H](CN3CCC(c4c[nH]c5ccccc45)(c4c[nH]c5ccccc45)CC3)C2)cc1 | 97% |
